Where “and” joins values, the source holds several entries; their conditions need not be identical. Equal entries are not always repeated. Inconclusive results, whose numbers are uncertain, are shown with a selection of clear calls. For some of these results: Potencies of inconclusive entries are doubtful fits and often do not repeat. Calls of active or inactive are those of the source. Unless noted, calls follow the shape of the dose curve; as a rule, active = well fitted curve in the direction sought with a large enough effect in the repeat runs; inconclusive = weak or mixed curves; inactive = no such curve, though single readings can be large; an effect the other way counts as inactive or inconclusive.
Key:
[1] = qHTS assay for small molecule agonists of the p53 signaling pathway (AID 651631; calls by dose curve; also: % is scaled to controls: 0 for no effect and ±100 for the full control effect; nearly all actives have a fitted effect of over 15% in size); conditions: HCT-116 p53RE-bla reporter, beta-lactamase FRET ratio, 16 h; activation: at 73.3 µM (top of the series) unless noted
Method in brief: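 p53RE-bla HCT-116 cells; compounds 16 h, 37 °C; LiveBLAzer B/G FRET substrate 2 h RT; fluorescence intensity read-out, qHTS format.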

[2] = qHTS assay for small molecule disruptors of the mitochondrial membrane potential (AID 720635); conditions: HepG2 mitochondrial membrane potential, Mito-MPS dye ratio; ratio activity, negative = MMP loss: at 83.2 µM (top of the series) unless noted; also: potency is read from the fitted curve at half-maximal effect
Method in brief: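 HepG2 cells exposed to compound 1 hr at 37C, then Mito-MPS dye 30 min. Ratio read of aggregate (540/590 nm) versus monomer (490/535 nm) fluorescence.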

[3] = qHTS assay for identifying genotoxic compounds that show differential cytotoxicity against isogenic chicken DT40 cell lines with known DNA damage response pathways - wild type cell line (AID 743012); conditions: DT40 wild type chicken cells viability, CellTiter-Glo, 40 h; activity change, negative = cytotoxicity: at 68.4 µM (top of the series) unless noted; also: potency is read from the fitted curve at half-maximal effect; nearly all actives have a fitted effect of over 60% in size
Method in brief: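 CellTiter-Glo luminescence readout of viability in wild type DT40 cells after 40 h compound exposure at 37 C/5% CO2; 300 cells/well; reagent incubated 30 min at room temperature before reading.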

[4] = qHTS assay for identifying genotoxic compounds that show differential cytotoxicity against isogenic chicken DT40 cell lines with known DNA damage response pathways - Rev3 mutant cell line (AID 743014); conditions: chicken DT40 Rev3-/- viability, CellTiter-Glo, 40 h; activity, negative = cytotoxicity: at 68.4 µM (top of the series) unless noted; also: potency is read from the fitted curve at half-maximal effect; nearly all actives have a fitted effect of over 55% in size
[5] = qHTS assay to identify small molecule antagonists of the thyroid receptor (TR) signaling pathway - cell viability counter screen (AID 743064); conditions: GH3.TRE-Luc viability, CellTiter-Fluor, 24 h; activity change, negative = cytotoxic: at 70.3 µM (top of the series) unless noted; also: % is scaled to controls: 0 for no effect and ±100 for the full control effect; nearly all actives have a fitted effect of over 50% in size
Method in brief: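 GH3.TRE-Luc cells, 4 h pre-plating; cpd + T3 1 nM final; 37 °C 23.5 h; CellTiter-Fluor 30 min; fluorescence read.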

[6] = qHTS assay for small molecule agonists of the antioxidant response element (ARE) signaling pathway (AID 743202; active = well fitted activation curve with a large enough effect in the signal ratio in the repeat runs, not every such curve was filed as active; inconclusive = weak or mixed curves, or effect the other way; inactive = no such curve, though single readings can be large or run the other way; the % refers to the signal ratio; also: % is scaled to controls: 0 for no effect and ±100 for the full control effect); conditions: HepG2 ARE-bla reporter, beta-lactamase FRET, 16 h; activation: at 73.3 µM (top of the series) unless noted
Method in brief: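 HepG2 ARE-bla reporter line, 2,000 cells/well; 5 h preincubation 37 C/5% CO2; compound (DMSO) 16 h 37 C; B/G FRET substrate 2 h RT; fluorescence intensity.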

[7] = qHTS assay to identify small molecule agonists of the farnesoid-X-receptor (FXR) signaling pathway - cell viability counter screen (AID 743218); conditions: FXR-bla HEK293T viability, CellTiter-Glo luminescence, 16 h; viability change, negative = cytotoxic: at 62.6 µM (top of the series) unless noted; also: % is scaled to controls: 0 for no effect and ±100 for the full control effect; nearly all actives have a fitted effect of over 45% in size
Method in brief: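 Luminescence from CellTiter-Glo, read after 30 min at RT, reports viability of GeneBLAzer FXR-UAS-bla HEK 293T cells treated 16 h with compounds in the wells used for the beta-lactamase reporter.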

[8] = molecular target: Vitamin D3 receptor (Homo sapiens) (UniProt P11473); assay: qHTS assay to identify small molecule antagonists of the vitamin D receptor (VDR) signaling pathway (AID 743223; active = well fitted inhibition curve with a large enough effect in the signal ratio in the repeat runs, not every such curve was filed as active; inconclusive = weak or mixed curves, or effect the other way; inactive = no such curve, though single readings can be large or run the other way; the % refers to the signal ratio; also: % is scaled to controls: 0 for no effect and ±100 for the full control effect); conditions: VDR-UAS-bla HEK293T, beta-lactamase FRET ratio, 16 h; activity change, negative = inhibition: at 61 µM (top of the series) unless noted
Method in brief: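 Beta-lactamase reporter read-out: FRET substrate fluorescence after 2 h at room temperature, following 16 h exposure of VDR-bla cells to test compound plus 3 nM (final) 1alpha,25-dihydroxyvitamin D3 agonist at 37C.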

[9] = molecular target: Retinoic acid receptor RXR-alpha (Homo sapiens) (UniProt P19793); assay: qHTS assay to identify small molecule agonists of the RXR signaling pathway (AID 1159527; calls by dose curve; also: % is scaled to controls: 0 for no effect and ±100 for the full control effect; nearly all actives have a fitted effect of over 35% in size); conditions: HEK293T RXRa-UAS-bla, beta-lactamase ratio, 16 h; activation: at 76.8 µM (top of the series) unless noted
Method in brief: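 Agonist mode; 9-cis retinoic acid positive control. HEK 293T UAS-bla reporter cells, 2% charcoal-stripped FBS, 16 hr compound exposure at 37 C/5% CO2. LiveBLAzer B/G FRET substrate 2 hr RT; ex 405, em 460/530 nm.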

[10] = molecular target: Thyrotropin receptor (Homo sapiens) (UniProt P16473); assay: qHTS assay to identify small molecule agonists of the thyroid stimulating hormone receptor (TSHR) signaling pathway (AID 1224843; calls by dose curve; also: potency is read from the fitted curve at half-maximal effect; nearly all actives have a fitted effect of over 45% in size); conditions: TSHR-HEK293 cells, cAMP HTRF, agonist mode, 30 min; activation: at 92.4 µM (top of the series) unless noted
Method in brief: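 HEK293/TSHR, 800 cells/well; cpd 30 min RT; add cAMP-d2 + anti-cAMP-cryptate, 1 h RT; fluorescence read on plate reader. 15-pt titration, n=3.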

[11] = molecular target: Progesterone receptor (Homo sapiens) (UniProt P06401); assay: qHTS assay to identify small molecule antagonists of the progesterone receptor (PR) signaling pathway (AID 1346795; active = well fitted inhibition curve with a large enough effect in the signal ratio in the repeat runs, not every such curve was filed as active; inconclusive = weak or mixed curves; the % refers to the signal ratio; also: potency is read from the fitted curve at half-maximal effect; as to activity change, negative = inhibition: % is scaled to controls: 0 for no effect and ±100 for the full control effect); conditions: PR-UAS-bla HEK293T, beta-lactamase FRET ratio, 16 h; activity change, negative = inhibition: at 92.4 µM (top of the series) unless noted
Method in brief: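 Beta-lactamase reporter, HEK293T PR-UAS-bla line; 2% charcoal-stripped FBS; 6 hr pre-incubation, 37C/5% CO2. Compound + R5020 1 nM final, 16 hr. LiveBLAzer B/G FRET substrate, 2 hr RT; fluorescence intensity read.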

[12] = qHTS assay to identify small molecule agonists of the progesterone receptor (PR) signaling pathway - cell viability counter screen (AID 1346799; calls by dose curve; also: potency is read from the fitted curve at half-maximal effect; nearly all actives have a fitted effect of over 45% in size)
Method in brief: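 HEK293T PR-UAS-bla, 3,000 cells/well, 2% charcoal-stripped FBS; 6 h settle, compound 16 h at 37C/5% CO2; LiveBLAzer 2 h RT, then CellTiter-Glo 30 min RT, luminescence read.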

[13] = molecular target: Peroxisome proliferator-activated receptor delta (Homo sapiens) (UniProt Q03181); assay: qHTS assay to identify small molecule antagonists of the peroxisome proliferator-activated receptor delta (PPARd) signaling pathway (AID 743215; active = well fitted inhibition curve with a large enough effect in the signal ratio in the repeat runs, not every such curve was filed as active; inconclusive = weak or mixed curves, or effect the other way; inactive = no such curve, though single readings can be large or run the other way; the % refers to the signal ratio;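 also: cells stimulated with agonist L165041 at 300 nM final during compound exposure; potency is read from the fitted curve at half-maximal effect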); conditions: HEK293H PPARd-UAS-bla, beta-lactamase FRET ratio, antagonist, 17 h; ratio activity, negative = inhibition: at 62 µM (top of the series) unless noted
Method in brief: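 HEK293H GeneBLAzer PPARd UAS-bla reporter cells; cpd + L165041 300 nM final, 17 h 37 C; LiveBLAzer B/G FRET substrate 2 h RT; fluorescence intensity read-out. Antagonist mode.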

[14] = molecular target: Glucocorticoid receptor (Homo sapiens) (UniProt P04150); assay: qHTS assay to identify small molecule antagonists of the glucocorticoid receptor (GR) signaling pathway (AID 720692; active = well fitted inhibition curve with a large enough effect in the signal ratio in the repeat runs, not every such curve was filed as active; inconclusive = weak or mixed curves, or effect the other way; inactive = no such curve, though single readings can be large or run the other way; the % refers to the signal ratio; also: % is scaled to controls: 0 for no effect and ±100 for the full control effect); conditions: GR-bla HeLa, beta-lactamase FRET ratio, dexamethasone-stimulated, 18 h; activity change, negative = inhibition: at 58.5 µM (top of the series) unless noted
Method in brief: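 Read-out: beta-lactamase FRET substrate fluorescence, 2 h at room temperature, in HeLa cells stably carrying a GRE-driven bla reporter. Compounds were co-incubated with 5 nM dexamethasone agonist (final) for 18 h at 37 C.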

[15] = molecular target: Estrogen receptor (Homo sapiens) (UniProt P03372); assay: qHTS assay to identify small molecule agonists of the estrogen receptor alpha (ER-alpha) signaling pathway using the BG1 cell line (AID 743079); conditions: BG1Luc4E2 cells, ERE-luciferase agonist, 22 h; activation: at 70.3 µM (top of the series) unless noted; also: % is scaled to controls: 0 for no effect and ±100 for the full control effect; nearly all actives have a fitted effect of over 20% in size
[16] = molecular target: Peroxisome proliferator-activated receptor gamma (Homo sapiens) (UniProt P37231); assay: qHTS assay to identify small molecule antagonists of the peroxisome proliferator-activated receptor gamma (PPARg) signaling pathway (AID 743191; calls by dose curve; also: % is scaled to controls: 0 for no effect and ±100 for the full control effect; nearly all actives have a fitted effect of over 30% in size); conditions: HEK293H PPARg-UAS-bla, beta-lactamase ratio, antagonist, 17 h
Method in brief: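 GeneBLAzer PPARg UAS-bla HEK293H cells, 5 h post-plating, exposed to compounds 17 h at 37C. LiveBLAzer B/G FRET substrate added for 1 h at room temperature; beta-lactamase reporter read by fluorescence intensity.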

[17] = molecular target: Cytochrome P450 2C9 (Homo sapiens) (UniProt P11712); assay: Cytochrome P450 Family 2 Subfamily C Member 9 (CYP2C9) small molecule antagonists: luciferase reporter qHTS assay (AID 1671198); also: potency is read from the fitted curve at half-maximal effect; nearly all actives have a fitted effect of over 50% in size
Method in brief: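 P450-Glo proluciferin substrate with CYP2C9 enzyme; 10 min RT preincubation, then NADPH regeneration 1 h at 37C; luciferin detection reagent 20 min RT, luminescence in relative luminescence units.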
Tags tell the direction and shape of the fitted curve or compound fluorescence and quenching.

Chain of UniProt P19793 (P19793 whole entry, looked up): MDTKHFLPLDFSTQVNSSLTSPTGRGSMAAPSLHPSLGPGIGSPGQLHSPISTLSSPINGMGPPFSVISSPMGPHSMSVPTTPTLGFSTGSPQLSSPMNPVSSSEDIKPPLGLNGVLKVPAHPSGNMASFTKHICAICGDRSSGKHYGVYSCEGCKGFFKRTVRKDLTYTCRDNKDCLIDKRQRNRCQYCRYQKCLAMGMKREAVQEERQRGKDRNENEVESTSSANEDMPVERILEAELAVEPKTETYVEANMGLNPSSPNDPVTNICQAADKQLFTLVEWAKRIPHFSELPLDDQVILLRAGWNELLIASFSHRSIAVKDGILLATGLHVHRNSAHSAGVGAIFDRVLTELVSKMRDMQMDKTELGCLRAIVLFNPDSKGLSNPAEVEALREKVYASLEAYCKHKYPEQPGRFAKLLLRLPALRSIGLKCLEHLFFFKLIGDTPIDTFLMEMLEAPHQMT
Chain of UniProt P11473 (P11473 whole entry, looked up): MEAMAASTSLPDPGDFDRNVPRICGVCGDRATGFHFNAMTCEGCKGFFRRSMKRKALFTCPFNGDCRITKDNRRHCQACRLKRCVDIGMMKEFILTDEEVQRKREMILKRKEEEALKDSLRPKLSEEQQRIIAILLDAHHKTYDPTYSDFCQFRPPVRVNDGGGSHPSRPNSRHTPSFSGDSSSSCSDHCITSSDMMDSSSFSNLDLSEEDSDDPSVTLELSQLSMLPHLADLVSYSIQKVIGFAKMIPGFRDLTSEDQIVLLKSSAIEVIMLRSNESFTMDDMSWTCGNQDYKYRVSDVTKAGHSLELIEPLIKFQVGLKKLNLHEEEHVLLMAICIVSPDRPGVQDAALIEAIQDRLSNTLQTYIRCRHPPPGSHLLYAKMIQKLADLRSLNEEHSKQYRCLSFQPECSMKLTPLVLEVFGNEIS
Chain of UniProt P06401 (P06401 whole entry, looked up): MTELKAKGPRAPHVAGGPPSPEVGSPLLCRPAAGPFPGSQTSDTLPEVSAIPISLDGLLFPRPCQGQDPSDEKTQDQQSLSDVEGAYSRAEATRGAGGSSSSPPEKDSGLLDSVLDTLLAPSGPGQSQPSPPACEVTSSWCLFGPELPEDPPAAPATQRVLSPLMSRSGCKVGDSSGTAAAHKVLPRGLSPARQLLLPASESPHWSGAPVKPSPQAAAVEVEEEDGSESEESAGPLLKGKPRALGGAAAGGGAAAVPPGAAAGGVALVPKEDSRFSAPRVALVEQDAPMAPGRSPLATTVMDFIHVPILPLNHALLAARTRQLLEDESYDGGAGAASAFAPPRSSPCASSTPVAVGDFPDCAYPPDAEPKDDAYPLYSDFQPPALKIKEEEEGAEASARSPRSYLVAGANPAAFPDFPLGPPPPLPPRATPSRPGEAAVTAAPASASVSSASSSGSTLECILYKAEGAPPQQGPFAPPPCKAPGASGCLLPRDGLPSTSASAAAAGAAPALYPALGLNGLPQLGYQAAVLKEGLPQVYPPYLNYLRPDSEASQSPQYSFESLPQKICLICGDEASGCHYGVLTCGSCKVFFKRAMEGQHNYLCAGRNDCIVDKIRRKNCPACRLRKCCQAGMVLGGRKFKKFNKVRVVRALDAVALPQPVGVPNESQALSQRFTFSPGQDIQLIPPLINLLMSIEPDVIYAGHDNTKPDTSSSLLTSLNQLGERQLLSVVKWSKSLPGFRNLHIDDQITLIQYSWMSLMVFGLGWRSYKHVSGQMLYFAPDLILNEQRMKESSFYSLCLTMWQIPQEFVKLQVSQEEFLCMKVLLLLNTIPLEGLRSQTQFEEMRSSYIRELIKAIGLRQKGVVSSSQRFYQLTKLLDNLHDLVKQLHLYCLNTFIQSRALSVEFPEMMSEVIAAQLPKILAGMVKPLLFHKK
Chain of UniProt P11712 (P11712 whole entry, looked up): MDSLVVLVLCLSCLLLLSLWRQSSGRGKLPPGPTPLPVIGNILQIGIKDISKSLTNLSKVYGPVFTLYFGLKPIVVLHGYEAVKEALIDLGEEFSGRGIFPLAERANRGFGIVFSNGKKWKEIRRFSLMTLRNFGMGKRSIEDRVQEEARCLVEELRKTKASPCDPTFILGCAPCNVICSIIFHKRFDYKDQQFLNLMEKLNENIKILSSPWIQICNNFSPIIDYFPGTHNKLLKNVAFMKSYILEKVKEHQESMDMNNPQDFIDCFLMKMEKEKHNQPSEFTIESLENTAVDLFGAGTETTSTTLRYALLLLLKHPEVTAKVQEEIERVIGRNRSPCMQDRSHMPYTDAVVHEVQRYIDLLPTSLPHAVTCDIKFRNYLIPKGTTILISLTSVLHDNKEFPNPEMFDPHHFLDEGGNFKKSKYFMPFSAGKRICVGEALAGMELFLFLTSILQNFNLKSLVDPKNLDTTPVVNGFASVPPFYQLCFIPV
Chain of UniProt P03372 (P03372 whole entry, looked up): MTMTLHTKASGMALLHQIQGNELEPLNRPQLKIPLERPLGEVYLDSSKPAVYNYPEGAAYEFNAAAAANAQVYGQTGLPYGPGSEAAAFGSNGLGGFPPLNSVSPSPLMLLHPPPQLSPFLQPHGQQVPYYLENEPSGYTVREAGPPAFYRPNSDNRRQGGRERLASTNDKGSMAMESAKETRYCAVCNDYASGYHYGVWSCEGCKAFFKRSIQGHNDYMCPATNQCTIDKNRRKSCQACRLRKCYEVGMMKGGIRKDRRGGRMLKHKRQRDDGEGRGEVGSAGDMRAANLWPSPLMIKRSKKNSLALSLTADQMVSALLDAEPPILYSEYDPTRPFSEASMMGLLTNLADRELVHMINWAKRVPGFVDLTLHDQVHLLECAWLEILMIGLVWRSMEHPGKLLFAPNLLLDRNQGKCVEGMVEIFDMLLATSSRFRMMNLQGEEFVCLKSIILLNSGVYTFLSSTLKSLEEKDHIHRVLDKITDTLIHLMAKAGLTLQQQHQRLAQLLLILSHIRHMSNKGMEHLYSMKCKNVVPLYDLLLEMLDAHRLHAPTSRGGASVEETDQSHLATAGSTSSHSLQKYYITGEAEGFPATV
Chain of UniProt P37231 (P37231 whole entry, looked up): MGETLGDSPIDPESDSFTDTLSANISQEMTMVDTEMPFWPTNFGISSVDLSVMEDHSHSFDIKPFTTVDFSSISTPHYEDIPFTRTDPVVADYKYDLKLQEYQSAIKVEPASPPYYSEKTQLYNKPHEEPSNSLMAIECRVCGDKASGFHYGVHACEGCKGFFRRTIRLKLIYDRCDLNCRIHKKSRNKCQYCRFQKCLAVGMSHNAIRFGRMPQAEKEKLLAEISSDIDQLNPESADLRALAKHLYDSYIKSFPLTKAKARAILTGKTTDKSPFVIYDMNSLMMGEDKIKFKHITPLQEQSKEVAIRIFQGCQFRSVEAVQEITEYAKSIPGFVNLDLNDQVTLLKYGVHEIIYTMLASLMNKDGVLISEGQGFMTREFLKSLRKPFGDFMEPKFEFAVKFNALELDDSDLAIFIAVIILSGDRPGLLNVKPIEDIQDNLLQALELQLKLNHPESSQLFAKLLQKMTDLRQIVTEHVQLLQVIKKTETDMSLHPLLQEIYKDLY
Chain of UniProt P04150 (P04150 whole entry, looked up): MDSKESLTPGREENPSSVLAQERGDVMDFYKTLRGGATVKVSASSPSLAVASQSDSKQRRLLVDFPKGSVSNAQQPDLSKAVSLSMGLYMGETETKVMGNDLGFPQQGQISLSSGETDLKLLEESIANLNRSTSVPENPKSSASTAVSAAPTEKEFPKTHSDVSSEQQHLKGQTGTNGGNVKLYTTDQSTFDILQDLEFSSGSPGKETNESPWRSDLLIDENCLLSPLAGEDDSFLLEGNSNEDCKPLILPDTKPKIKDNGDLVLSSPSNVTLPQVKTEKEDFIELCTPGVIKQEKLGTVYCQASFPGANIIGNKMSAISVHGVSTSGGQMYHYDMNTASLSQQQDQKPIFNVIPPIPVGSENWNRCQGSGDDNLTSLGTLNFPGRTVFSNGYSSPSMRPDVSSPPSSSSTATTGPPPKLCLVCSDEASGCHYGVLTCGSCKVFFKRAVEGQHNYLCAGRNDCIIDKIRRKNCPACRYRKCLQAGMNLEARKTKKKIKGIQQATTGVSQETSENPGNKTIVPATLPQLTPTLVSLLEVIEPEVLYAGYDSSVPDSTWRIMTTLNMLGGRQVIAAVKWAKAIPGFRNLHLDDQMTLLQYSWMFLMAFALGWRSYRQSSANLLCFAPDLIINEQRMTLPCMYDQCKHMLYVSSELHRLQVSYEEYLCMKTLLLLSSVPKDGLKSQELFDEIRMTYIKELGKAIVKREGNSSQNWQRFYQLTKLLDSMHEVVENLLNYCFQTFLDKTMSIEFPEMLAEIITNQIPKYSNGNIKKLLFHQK
Chain of UniProt P16473 (P16473 whole entry, looked up): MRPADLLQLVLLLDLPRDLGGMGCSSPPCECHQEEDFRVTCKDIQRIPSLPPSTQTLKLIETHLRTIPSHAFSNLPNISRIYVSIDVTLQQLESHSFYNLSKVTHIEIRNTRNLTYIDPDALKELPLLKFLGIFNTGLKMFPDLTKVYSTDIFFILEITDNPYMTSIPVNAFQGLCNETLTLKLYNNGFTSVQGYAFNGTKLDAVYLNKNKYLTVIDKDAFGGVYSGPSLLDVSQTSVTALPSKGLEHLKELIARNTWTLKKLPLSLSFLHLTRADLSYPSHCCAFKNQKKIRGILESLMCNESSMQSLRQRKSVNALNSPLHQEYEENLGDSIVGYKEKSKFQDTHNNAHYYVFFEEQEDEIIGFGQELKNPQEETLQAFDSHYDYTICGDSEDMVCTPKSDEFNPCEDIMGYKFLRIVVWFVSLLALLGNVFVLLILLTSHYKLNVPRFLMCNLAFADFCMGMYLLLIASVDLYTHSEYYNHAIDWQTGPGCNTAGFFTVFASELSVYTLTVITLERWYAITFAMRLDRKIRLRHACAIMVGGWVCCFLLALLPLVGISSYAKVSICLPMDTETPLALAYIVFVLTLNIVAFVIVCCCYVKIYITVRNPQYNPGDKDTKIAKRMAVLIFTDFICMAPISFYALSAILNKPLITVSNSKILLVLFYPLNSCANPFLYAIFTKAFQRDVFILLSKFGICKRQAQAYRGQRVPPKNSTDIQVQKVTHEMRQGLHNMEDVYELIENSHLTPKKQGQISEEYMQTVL

N#Cc1ccc(CC(=O)c2cccc(C(F)(F)F)c2)cc1
inactive: Potency [5] | Potency [6] | Potency [7]
inconclusive: activation [1] 4.48% | Potency [2] 61.1 µM | Potency [3] 27.3 µM [cytotoxic, single point] | Potency [4] 8.63 µM [cytotoxic, partial curve] | activity change, negative = inhibition [8] -15.5% | activation [9] 14.3% | Potency [10] 30.6 µM [inhibitor, partial curve, poor fit] | Potency [11] 13.7 µM | Potency [12] 68.6 µM [rising, single point]

COc1ccc(OC)c(NC(=O)CC(C)=O)c1
inactive: Potency [6] | Potency [9] | Potency [11]
inconclusive: Potency [2] 30.6 µM [activator] | Potency [4] 68.6 µM [cytotoxic, single point] | Potency [13] 54.9 µM [fluorescent, single point]

COc1ccc(C)cc1N
inactive: Potency [14] | Potency [15] | ratio activity, negative = inhibition ([16]; at 62.6 µM (top of the series)) -8.15% | Potency [8]
inconclusive: ratio activity, negative = inhibition ([16]; ratio activity, negative = inhibition: at 62.6 µM (top of the series) unless noted) 21.6% | activation [9] 9.96% | Potency [17] 34.4 µM [inhibitor, partial curve] and 28.3 µM [inhibitor, full curve]

— PubChem BioAssay (Tox21)
